PubChem BioAssay AID588579 (National Center for Advancing Translational Sciences (NCATS), 2011)
Where “and” joins values, the source holds several entries; their conditions need not be identical. Identical values can stand only once. Among all 400,000 compounds or so, about 2,200 (0.55%) were called active. This list was built around the results that the source calls inconclusive (neither active nor inactive); the mix of calls is not that of the screen. Calls come from the whole dose curve; as a rule, active = well fitted inhibition curve with a large enough effect; inconclusive = small, poorly fitted or top-dose-only effect, or another doubt; inactive = no such curve, though single readings can be large or run the other way. A potency beside an inconclusive call is a rough fit, not a confirmed value. Where a structure was tested more than once in an assay, its records may differ in their call.
% is set by controls: 0 for no effect and ±100 for the full control effect; potency is the fitted concentration of half-maximal effect; tags give direction and shape of the fitted curve.

The compounds below were run against DNA polymerase kappa (Homo sapiens) (UniProt Q9UBT6) (assay: qHTS for Inhibitors of Polymerase Kappa). Conditions: purified Pol kappa, fluorescent DNA synthesis assay, 10 min; series mostly up to 107 µM.
Sequence of UniProt Q9UBT6 (Q9UBT6 whole entry, looked up): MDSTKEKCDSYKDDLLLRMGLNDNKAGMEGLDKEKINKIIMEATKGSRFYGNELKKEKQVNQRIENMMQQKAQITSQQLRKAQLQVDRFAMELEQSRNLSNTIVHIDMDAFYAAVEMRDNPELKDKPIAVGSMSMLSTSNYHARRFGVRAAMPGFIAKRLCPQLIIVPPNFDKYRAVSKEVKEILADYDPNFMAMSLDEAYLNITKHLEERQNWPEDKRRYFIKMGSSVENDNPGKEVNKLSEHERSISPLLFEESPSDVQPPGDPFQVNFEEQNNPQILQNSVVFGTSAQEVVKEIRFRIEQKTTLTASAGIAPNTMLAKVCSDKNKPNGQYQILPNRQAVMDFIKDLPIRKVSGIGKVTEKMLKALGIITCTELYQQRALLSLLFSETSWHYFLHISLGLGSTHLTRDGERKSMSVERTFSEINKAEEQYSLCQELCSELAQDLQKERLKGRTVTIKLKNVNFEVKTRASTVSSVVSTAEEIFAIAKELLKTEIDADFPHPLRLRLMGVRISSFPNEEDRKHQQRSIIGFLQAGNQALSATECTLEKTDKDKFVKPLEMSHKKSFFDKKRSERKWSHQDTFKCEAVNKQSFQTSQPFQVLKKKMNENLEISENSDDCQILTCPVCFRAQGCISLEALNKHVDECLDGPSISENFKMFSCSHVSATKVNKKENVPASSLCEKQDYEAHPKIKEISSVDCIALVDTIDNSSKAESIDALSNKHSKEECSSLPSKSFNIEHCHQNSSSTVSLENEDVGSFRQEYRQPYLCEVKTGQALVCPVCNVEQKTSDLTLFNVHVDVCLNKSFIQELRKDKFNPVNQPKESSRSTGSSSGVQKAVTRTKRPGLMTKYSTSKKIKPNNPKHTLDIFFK
Summary of the method: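 Here, compound and 10 nM enzyme are combined for 15 min at room temperature; adding 50 nM substrate (final) starts DNA synthesis, tracked by fluorescence at 0 and 10 min against buffer-only wells.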
`COC(=O)C1=C(c2ccc3ccccc3c2)C[C@@H]2CC[C@H]1N2C(=O)NCC1CC1` was tested, and the Potency was “inactive”. `CCOC(=O)CCCc1cc[c]([Sb](=[O])([OH])[OH])cc1` was tested, and the Potency was active: 0.708 µM. With `CCOP(=S)(OCC)Oc1cc(C)nc(N(CC)CC)n1` the Potency was “inactive”. `C[C@]12C[C@H](O)[C@@H](O)CC1=CCC1C2CC[C@@]2(C)C1CC[C@@H]2O` (some centres undefined) was tested, and the Potency was “inactive”. `COc1ccc2nc(NC(=O)c3nc(S(=O)(=O)Cc4cccc(C)c4)ncc3Cl)sc2c1` was tested, and the Potency was inconclusive: 89.1 µM [inhibitor, single point]. For `Oc1c(Cl)c(Cl)c(Cl)c(Cl)c1Cl`, the Potency was inconclusive: 39.8 µM [inhibitor, single point]. `COc1cccc(N=Cc2c(O)n(Cc3ccco3)c(=O)[nH]c2=O)c1` was tested, and the Potency was “inactive”. For `COc1ccc(/C=C/C(=O)c2c(O)n(CCC3=CCCCC3)c(=O)[nH]c2=O)cc1OC`, the Potency was inconclusive: 39.8 µM [inhibitor, single point]. In the case of `O=C1NC(=O)N(Cc2ccccc2)C(=O)/C1=C\N1CCCc2ccccc21`, the Potency is reported as inconclusive: 50.1 µM [inhibitor, partial curve, poor fit]. In the case of `COc1ccc(/C=C2/C(=O)N(Cc3ccco3)C(=O)N(C(C)C)C2=O)cc1`, the Potency is reported as active: 20 µM. With `C[C@@H]1O[C@@H](Oc2c(-c3ccc(O)c(O)c3)oc3cc(O)cc(O)c3c2=O)[C@H](O)[C@H](O)[C@H]1O` the Potency was active: 44.7 µM. For `O=C1OC(c2cc(I)c(O)c(I)c2)(c2cc(I)c(O)c(I)c2)c2ccccc21`, the Potency was active: 3.55 µM. With `CCCCCCCC/C=C\CCCCCCCC(=O)OC[C@@H](COP(O)(O)=S)OC` the Potency was active: 16.8 µM. In the case of `Cc1ccc(-n2c(C)cc(/C=C3/C(=O)NC(=O)N(Cc4ccco4)C3=O)c2C)cc1`, the Potency is reported as inconclusive: 25.1 µM [inhibitor, single point]. `CC(=O)OCC1=C(C(=O)O)N2C(=O)C(NC(=O)CCCC(N)C(=O)O)C2SC1` (centres undefined) was tested, and the Potency was inconclusive: 28.2 µM [inhibitor, single point]. With `Cc1cccc(N2C(=O)NC(=O)/C(=C\c3cccn3-c3ccc(Cl)cc3)C2=O)c1` the Potency was active: 79.4 µM. With `O=C(CN1C(=O)CN=C(c2ccccc2)c2ccccc21)NCc1ccco1` the Potency was inconclusive: 89.1 µM [inhibitor, single point]. For `Cc1ccc2c(c1Cl)NC(C(=O)O)C1CC(Sc3ccccc3[N+](=O)[O-])C(Cl)C21` (centres undefined), the Potency was inconclusive: 100 µM [inhibitor, single point]. For `O=C1NC(=S)N(c2ccc(Br)cc2)C(=O)/C1=C/N1CCN(C(=O)c2ccco2)CC1`, the Potency was inconclusive: 89.1 µM [inhibitor, single point]. For `O=C(Cc1cc(=O)oc2cc(O)ccc12)NN=Cc1ccc(N(CCCl)CCCl)cc1`, the Potency was inconclusive: 79.4 µM [inhibitor, partial curve, poor fit]. `O=C(Nc1cccc(C(=O)Nc2cc(C(=O)Nc3ccc([S+](=O)([O-])[O-])c4cc([S+](=O)([O-])[O-])cc(SOOO)c34)ccc2F)c1)Nc1cccc(C(=O)Nc2cc(C(=O)Nc3ccc([S+](=O)([O-])[O-])c4cc([S+](=O)([O-])[O-])cc([S+](=O)([O-])[O-])c34)ccc2F)c1` was tested, and the Potency was active: 0.0597 µM. With `COc1ccc(/C=C2\C(=O)NC(=S)N(C)C2=O)cc1C` the Potency was active: 50.1 µM. `ClC1=C(Cl)C(Cl)(C2(Cl)C(Cl)=C(Cl)C(Cl)=C2Cl)C(Cl)=C1Cl` was tested, and the Potency was active: 6.7 µM. For `Nc1ccc(N)cc1`, the Potency was inconclusive: 0.126 µM [inhibitor, partial curve, poor fit]. For `CC/C(=C\C=C\[C@@H]1C=C[C@@H]2CCC[C@H]2[C@@H]1C(=O)c1ccc[nH]1)[C@@H]1O[C@@H]([C@@H](C)C(=O)O)CC[C@@H]1C`, the Potency was inconclusive: 89.1 µM [inhibitor, single point]. In the case of `ClCCN(CCCl)c1ccc(C=Nc2ccncc2)cc1`, the Potency is reported as “inactive”. For `C[C@@H](CO)NC(=O)[C@@H]1C=C2c3cccc4[nH]cc(c34)C[C@H]2N(C)C1`, the Potency was inconclusive: 4.47 µM [inhibitor, partial curve, poor fit]. In the case of `Cc1cccc(NC(=O)C2CCCN(S(=O)(=O)c3ccc4c(c3)oc(=O)n4C)C2)c1` (centres undefined), the Potency is reported as inconclusive: 100 µM [inhibitor, partial curve, poor fit]. In the case of `O=c1[nH]c(=O)n(-c2ccc(F)cc2)c(O)c1/C=C1\C=Nc2ccccc21`, the Potency is reported as inconclusive: 100 µM [inhibitor, single point]. `O=C1NC(=O)N(c2ccccc2)C(=O)/C1=C\c1ccc([N+](=O)[O-])s1` was tested, and the Potency was active: 28.2 µM. `NCC(=O)c1ccc2ccccc2c1` was tested, and the Potency was “inactive”. For `O=C(Nc1cc(C(F)(F)F)cc(C(F)(F)F)c1)c1cc(Cl)ccc1O`, the Potency was active: 29.9 µM. With `CN(CC(=O)NC(=O)NCc1ccco1)CC(=O)Nc1ccccc1Cl` the Potency was inconclusive: 100 µM [inhibitor, single point]. For `Cc1cc(C)cc(N2C(=O)NC(=O)/C(=C\C=C\c3ccco3)C2=O)c1`, the Potency was active: 39.8 µM. With `CCCCn1c(O)c(C(C)=NCCc2c[nH]c3ccccc23)c(=O)[nH]c1=O` the Potency was “inactive”. H-YIGSR-NH2 was tested, and the Potency was “inactive”. `Cc1cc(SCc2sc(-c3ccc(C(F)(F)F)c(F)c3)nc2C)ccc1OCC(=O)O` was tested, and the Potency was inconclusive: 37.7 µM [inhibitor, single point]. In the case of `Cc1ccccc1-n1c(O)c(/C=C2/C(c3ccccc3)=Nc3ccccc32)c(=O)[nH]c1=O`, the Potency is reported as “inactive”. `CC(=O)Oc1ccccc1C(=O)Nc1ncc([N+](=O)[O-])s1` was tested, and the Potency was inconclusive: 29.9 µM [inhibitor, partial curve, poor fit]. For `Cc1[nH]ccc2c1[nH]c1cc(=O)ccc12`, the Potency was inconclusive: 15.8 µM [inhibitor, partial curve, poor fit]. With `O=C1NC(=O)N(Cc2ccco2)C(=O)/C1=C\c1cccn1CCOc1ccccc1` the Potency was inconclusive: 89.1 µM [inhibitor, single point]. In the case of `Cc1cc(/C=C2\C(=O)NC(=O)N(c3ccc(Br)cc3)C2=O)c(C)n1-c1cc(C(=O)O)cc(C(=O)O)c1`, the Potency is reported as active: 2.82 µM. With `CC(=O)Oc1c2c(c(CC=C(C)C)c3c1C(=O)C1=CC4CC5C(C)(C)OC(C/C=C(\C)C(=O)O)(C4=O)[C@]15O3)OC(C)(CCC=C(C)C)C=C2` (some centres undefined) the Potency was active: 25.1 µM. In the case of `NC(=O)C1CCN(/C=C2\C(=O)NC(=O)N(Cc3ccco3)C2=O)CC1`, the Potency is reported as active: 79.4 µM. `ClC1=C(Cl)C(Cl)=C(Cl)C1=C/C=C/c1ccccc1` was tested, and the Potency was inconclusive: 89.1 µM [inhibitor, single point]. With `CSC(=S)NCc1c[nH]c2ccccc12` the Potency was inconclusive: 44.7 µM [inhibitor, partial curve, poor fit]. For `O=S(=O)(O)c1cc(N=C=S)ccc1/C=C/c1ccc(N=C=S)cc1S(=O)(=O)O`, the Potency was active: 35.5 µM. `Cc1c2ccncc2c(C)c2c1[nH]c1ccccc12` was tested, and the Potency was inconclusive: 2.67 µM [inhibitor, partial curve] and inconclusive: 79.4 µM [inhibitor, partial curve, poor fit] and inconclusive: 37.7 µM [inhibitor, single point]. With `CC(C)CS(=O)(=O)C1=NN2C(=N)/C(=C\c3ccc(OC(=O)c4ccco4)cc3)C(=O)N=C2S1` the Potency was inconclusive: 50.1 µM [inhibitor, partial curve, poor fit]. `O=C1NC(=O)N(c2ccccc2)C(=O)/C1=C/c1ccc([N+](=O)[O-])s1` was tested, and the Potency was active: 31.6 µM. With `CN(C)C1C(=O)C(C(N)=O)C(=O)C2(O)C(=O)C3C(=O)c4c(O)cccc4C(C)(O)C3C(O)C12` (centres undefined) the Potency was active: 2.82 µM. `O=C1NC(=O)N(c2ccccc2)C(=O)/C1=C/C=C/c1ccco1` was tested, and the Potency was active: 39.8 µM. With `COc1cc2c(ccc3c4cc(OC)c(OC)cc4c[n+](C)c23)cc1O` the Potency was active: 31.6 µM. In the case of `CN1CC[C@@]2(C)c3cc(OC(=O)Nc4ccccc4)ccc3N(C)[C@@H]12`, the Potency is reported as “inactive”. With `O=C1NC(=O)C2(Cc3ccccc3N3CCCC32)C(=O)N1c1ccc(Cl)cc1` (centres undefined) the Potency was inconclusive: 79.4 µM [inhibitor, partial curve, poor fit]. With `C=C1CC[C@H](O)C/C1=C/C=C1\CCC[C@]2(C)[C@@H]([C@H](C)CCCC(C)C)CC[C@@H]12` the Potency was inconclusive: 44.7 µM [inhibitor, single point]. In the case of `COC(C(=O)C(O)C(C)O)C1Cc2cc3cc(OC4CC(OC5CC(O)C(OC)C(C)O5)C(OC(C)=O)C(C)O4)c(C)c(O)c3c(O)c2C(=O)C1OC1CC(OC2CC(OC3CC(C)(O)C(OC(C)=O)C(C)O3)C(O)C(C)O2)C(O)C(C)O1` (centres undefined), the Potency is reported as active: 21.2 µM. In the case of `C[C@]12CCC3C(C1CCC2=O)[C@H](O)C[C@H]1C[C@@H](O)CC[C@]31C` (some centres undefined), the Potency is reported as “inactive”. `CCCCC/C=C\C/C=C\C/C=C\C/C=C\CCCC(=O)NCCO` was tested, and the Potency was inconclusive: 39.8 µM [inhibitor, partial curve, poor fit]. `CC(C)NC(=O)N1CCC2(CC1)CCN(C(=O)Oc1ccccc1)CC2` was tested, and the Potency was “inactive”. With `CC(C)(C)OC(=O)N1CC[C@H]1COc1cnc[c]([Sn]([CH3])([CH3])[CH3])c1` the activity, negative = inhibition was inactive: -6.72% [at 12 µM]. In the case of `CCCCCCCCCCCCCC(=O)O[C@@H]1[C@@H](C)[C@@]2(O)[C@@H](C=C(CO)C[C@@]3(O)C(=O)C(C)=C[C@@H]23)C2C(C)(C)[C@@]21OC(C)=O` (some centres undefined), the Potency is reported as inconclusive: 26.7 µM [inhibitor, single point]. With `C=C(C)[C@H]1CC[C@]2(C(=O)O)CC[C@]3(C)[C@@H](CC[C@H]4[C@@]5(C)CC[C@@H](O)C(C)(C)[C@@H]5CC[C@@]43C)[C@H]12` the Potency was inconclusive: 5.32 µM [inhibitor, partial curve, poor fit]. In the case of `O=c1[nH]c(=O)n(Cl)c(=O)n1Cl`, the Potency is reported as “inactive”.
